Experimental data: PubChem BioAssay AID485294 (National Center for Advancing Translational Sciences (NCATS), 2010)
Screen size: about 370,000 compounds; about 150 (0.041%) were called active. This list was built around the results that the source calls inconclusive (neither active nor inactive); the mix of calls is not that of the screen. Calls come from the whole dose curve; as a rule, active = well fitted inhibition curve with a large enough effect; inconclusive = small, poorly fitted or top-dose-only effect; inactive = flat fitted curve, though single readings scatter. No potency is given beside an inconclusive call; the fits are too rough.

Each compound was assayed against Beta-lactamase (Escherichia coli (strain K12)) (UniProt P00811) (assay: qHTS Inhibitors of AmpC Beta-Lactamase (assay with detergent)). Details: AmpC hydrolysis of nitrocefin, absorbance 480 nm, 0.01% Triton; series mostly up to 114 µM.
How it was run: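 20 mM phosphate pH 7.0 + 0.01% (detergent screen) or 0.0001% Triton X-100; 5.3 nM AmpC reagent; cpd preinc 15 min RT; nitrocefin (800 uM stock) to start; A480 q20 s × 4 min; Activity was normalised to no-enzyme and no-compound control wells.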
Note: nearly all actives have a fitted effect of over 25% in size.
Potency is the fitted concentration of half-maximal effect; tags give direction and shape of the fitted curve.

Chain of UniProt P00811 (P00811 whole entry, looked up): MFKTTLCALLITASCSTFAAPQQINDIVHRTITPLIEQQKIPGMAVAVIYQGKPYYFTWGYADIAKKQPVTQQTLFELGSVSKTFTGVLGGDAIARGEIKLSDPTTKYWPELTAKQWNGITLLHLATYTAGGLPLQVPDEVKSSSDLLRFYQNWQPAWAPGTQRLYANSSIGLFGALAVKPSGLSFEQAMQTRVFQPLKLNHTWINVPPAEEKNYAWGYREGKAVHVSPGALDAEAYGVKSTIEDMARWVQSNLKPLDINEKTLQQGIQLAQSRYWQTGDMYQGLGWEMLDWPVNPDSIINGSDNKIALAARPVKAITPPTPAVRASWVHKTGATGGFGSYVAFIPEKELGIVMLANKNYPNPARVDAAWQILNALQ

Structure (SMILES)	Potency
Cc1ccc2nc(NCCc3ccc(Cl)cc3)c3nncn3c2c1	inactive
CC(C)(C)C(=O)Cn1c(NCCCO)nc2ccccc21	inconclusive [inhibitor, partial curve, poor fit]
Cc1ccc(C)c(C(=O)CSc2n[nH]c(C)n2)c1	inconclusive [inhibitor, partial curve, poor fit]
COc1cc(NS(=O)(=O)c2ccc(NC(=O)c3ccc([N+](=O)[O-])cc3)cc2)ncn1	inconclusive [inhibitor, partial curve]
O=C(NCCCn1ccnc1)c1cnn2c1NC(c1ccccc1)CC2C(F)(F)F (configuration not stated)	inconclusive [inhibitor, full curve, poor fit]
O=C(NCCc1ccccc1)c1ccc(-c2ccccc2Cl)o1	inconclusive [inhibitor, full curve, poor fit]
O=C(CSc1ccc2nnc(-c3ccccn3)n2n1)Nc1ccc2c(c1)OCO2	inconclusive [inhibitor, full curve, poor fit]
O=C(c1ccc2nc(N3CCOCC3)sc2c1)N1CCCC1	inconclusive [inhibitor, full curve]
COc1ccc(-n2ncc3c(=O)n(CC(=O)NC(C)C)cnc32)cc1	inactive
COc1ccc(CCNC(=O)C(=O)Nc2ccc(C)c(C)c2)cc1OC	inactive
CCCCC(=O)Nc1cccc(-c2nc3ccccc3s2)c1	inactive
COc1ccc(COC(=O)NNC(=O)c2ccc(OC)cc2)cc1	inconclusive [inhibitor, single point]
O=C(O)Cn1c(SCCOc2ccccc2F)nc2ccccc21	inconclusive [inhibitor, full curve, poor fit]
COc1cc(NS(=O)(=O)c2ccc(NC(=O)c3ccco3)cc2)nc(OC)n1	inconclusive [inhibitor, full curve]
CN(CCOc1ccc(Cl)cc1)C(=O)c1cc(-c2ccco2)nc2ccccc12	inconclusive [inhibitor, full curve, poor fit]
COc1ccccc1/C=N\NC(=O)c1c(C)nc2ccc(Cl)cn12	inconclusive [inhibitor, partial curve, poor fit]
CCOC(=O)Nc1ccc2c(CN3C(=O)NC4(CCCC4)C3=O)cc(=O)oc2c1	inconclusive [inhibitor, single point]
CC1=NNC(=O)/C1=C\c1cn(-c2ccccc2)nc1-c1cccs1	inactive
CCOC(=O)N1CCN(C(=O)c2cc3c(=O)n(C)c4ccccc4c3n2C)CC1	inconclusive [inhibitor, full curve, poor fit]
COc1cc(/C=N/NC(=O)c2ccc3c(c2)OCCO3)cc(Br)c1O	inactive
FC(F)Oc1ccccc1/C=N/n1cnc2ccccc21	inconclusive [inhibitor, single point]

Structure (SMILES)	Potency
CN(C)Cc1ccccc1Sc1ccccc1Br	inconclusive [inhibitor, single point]
COc1ccc(-n2ccnc(SCC(=O)NC3CCCC3)c2=O)cc1OC	inconclusive [inhibitor, partial curve]
Cc1ccc(-n2nnnc2SCCNS(=O)(=O)c2ccccc2)cc1C	inconclusive [inhibitor, full curve, poor fit]
CCOC(=O)CCSCC(=O)N1N=C(c2cccs2)CC1c1ccc(C)cc1 (configuration not stated)	inconclusive [inhibitor, full curve, poor fit]
CC1(C)Cc2c(sc3c4nnnn4c4nnnn4c23)CO1	inconclusive [inhibitor, full curve, poor fit]
Cc1ccc(S(=O)(=O)/N=C(/c2ccc(F)cc2)N2CCCCC2)cc1	inconclusive [inhibitor, partial curve]
CCCNC(=O)c1ccccc1NC(=O)c1ccc(CSc2ccccc2)cc1	inactive
COc1ccccc1-c1nc(C#N)c(N2CCCCCC2)o1	inconclusive [inhibitor, full curve, poor fit]
CC(NC(=O)COC(=O)c1ccccc1SCC(=O)N1CCCC1)c1ccccc1 (configuration not stated)	inconclusive [inhibitor, partial curve, poor fit]
COc1ccccc1NC(=O)N1CCOc2ccccc21	inactive
CCc1cccc(OCC(=O)Nc2cc(Cl)ccc2-n2cncn2)c1	inconclusive [inhibitor, full curve, poor fit]
CC(C)(C)C1CCC(C(=O)OCC(=O)N2CCOCC2)CC1 (configuration not stated)	inconclusive [inhibitor, full curve, poor fit]
COc1ccccc1NC(=O)C(C)OC(=O)Cc1n[nH]c(=O)c2ccccc12 (configuration not stated)	inconclusive [inhibitor, partial curve, poor fit]
CC1(C)CC(=O)c2cc(C(=O)NNc3ccccc3)c(=O)n(-c3ccccc3)c2C1	inconclusive [inhibitor, partial curve]
COc1ccc(N2CCN(C(=O)C(=O)c3c(C)n(C)c4ccccc34)CC2)cc1	inconclusive [inhibitor, full curve, poor fit]
Cc1ccc(-n2ncc3c(SCC(N)=O)ncnc32)cc1C	inconclusive [inhibitor, full curve]
CCCCN1C(=O)/C(=C2\SC(N3CCCCC3)=NC2=O)c2ccccc21	inconclusive [inhibitor, partial curve, poor fit]
Cc1ccc(C)c(N2CCN(S(=O)(=O)c3ccc4c(c3)CCN4C(=O)CCC(=O)O)CC2)c1	inactive
Cn1c(=O)n(C)c2cc(NC(=O)CSc3nc4ccccc4c(=O)[nH]3)ccc21	inconclusive [inhibitor, full curve, poor fit]
Nc1ccc(N2CCN(C(=O)c3ccco3)CC2)cc1	inactive
O=C(/C=C/Nc1ccccc1F)c1cccs1	inconclusive [inhibitor, single point]
